The values below come from ChEMBL document CHEMBL4888484, “Replenishing the malaria drug discovery pipeline: Screening and hit evaluation of the MMV Hit Generation Library 1 (HGL1) against asexual blood stage Plasmodium falciparum ,using a nano luciferase reporter read-out” (2022).

The whole screen tested about 150,000 compounds, of which about 540 (0.36%) showed an effect of 50% or more. This is one part of the list.

This experiment relates to Plasmodium falciparum. The experiment is described as follows: Primary screen in NF54 nanoGlo assay, in single point, at 2uM, 72h; a lower Z score goes with more inhibition. The conditions noted are these: timepoint 72 hour. The class given is functional, Erythrocyte.
`Cc1cc(C)n(C(C)CC(=O)NC[C@@H]2CCO[C@H]2c2ccnn2C)n1` (stereo partly specified): the “% Inhibition” value is on record as -2% and the Z score turned out to be 0.22.

Take `COCCN1CCC[C@H](NS(=O)(=O)c2c(C)nn(C)c2C)C1`: the “% Inhibition” value was determined as 2% and the Z score was -0.22.

With `CCOc1ccc(C(=O)NC(CC)[C@H]2C[C@H](O)C2)o1` (stereo partly specified), the “% Inhibition” value was found to be 6% and the Z score was -1.21.

Regarding `CCN(Cc1ccccn1)C(=O)Nc1cccc(N(C)CC)c1`, the “% Inhibition” value is -12% and the Z score stood at 1.6.

For `C[C@@H]1CN(CCN(C)S(=O)(=O)c2ccc3c(c2)CCC3)C[C@H](C)O1`, the “% Inhibition” value was -6% and the Z score came out at 1.04.

Take `CCCC[C@H](N)C(=O)N1CCC(n2cccn2)CC1`: the “% Inhibition” value is -2% and the Z score stood at 0.14.

Turning to `CCc1ccc(CN2CCC[C@@H]2Cn2ccnc2)o1`, the “% Inhibition” value is on record as -2% and the Z score was determined as 0.31.

As to `O=C(c1cccc(S(=O)(=O)NCC2CC2)c1)N1CCC[C@H]1c1ccncc1`, the “% Inhibition” value is -2% and the Z score turned out to be 0.31.

With `CCNCC#CCOc1ccc(Cl)c(Cl)c1`, the “% Inhibition” value is recorded as -2% and the Z score stood at 0.36.

Turning to `CN(C)[C@@H](CNC(=O)COc1ccccc1)c1ccsc1`, the “% Inhibition” value is -10% and the Z score was 1.12.

In the case of `O=C(NCc1ccccc1)C1CCN(Cc2nc3ccccc3o2)CC1`, the “% Inhibition” value was 5% and the Z score is given as -0.71.

In the case of `C[C@H]1c2cccn2CCN1CCn1cccn1`, the “% Inhibition” value is -10% and the Z score is 1.02.

With `CCn1cc(S(=O)(=O)N[C@H](c2nccn2C)C2CC2)cn1`, the “% Inhibition” value is given as -9% and the Z score was determined as 1.62.

On to `O=C(NCc1cc2n(n1)CCCN(Cc1ccc3occc3c1)C2)C1CCC1`, for which the “% Inhibition” value is reported as -2% and the Z score came to 0.23.

Take `C1CCC(c2nc3c(c(NCCN4CCOCC4)n2)CCOCC3)C1`: the “% Inhibition” value worked out at 2% and the Z score is reported as -0.21.

For `CCN(C)CC(=O)N1CCC[C@@]2(CCC(=O)N(Cc3ccccn3)C2)C1`, the “% Inhibition” value came to 2% and the Z score is on record as -0.32.

With `CC(C)[C@H](NCc1ccc2c(c1)CCO2)C(=O)OC(C)(C)C`, the “% Inhibition” value is recorded as -5% and the Z score is 0.68.

As for `COc1ccc(NC(=O)[C@H](C)OCC(C)C)c(OC)c1`, the “% Inhibition” value amounted to 9% and the Z score was -1.16.

Take `COc1cccc(C(=O)NCc2ccc3c(c2)CCN3C(=O)CC(C)C)c1`: the “% Inhibition” value is -12% and the Z score was 1.87.

As to `Cc1nc(O)ccc1C(=O)N(C)C1CCOC(c2ccc(F)cc2)C1` (stereo unspecified), the “% Inhibition” value amounted to 5% and the Z score is -0.8.

For `O=S(=O)(CCn1nnc2c1CCCC2)C1CCCCC1`, the “% Inhibition” value is -1% and the Z score turned out to be 0.2.

On to `COCCNC(=O)c1cc(NS(=O)(=O)c2ccc(C(C)(C)C)cc2)cnc1N1CCNCC1`, for which the “% Inhibition” value is -8% and the Z score worked out at 1.1.

Turning to `CCCn1cc(C2=CCN(C(=O)Nc3cccc(C)c3C)CC2)c2cccnc21`, the “% Inhibition” value was -10% and the Z score is on record as 1.27.

Turning to `CCn1nc(C)c(NS(=O)(=O)c2cn[nH]c2C(C)(C)C)c1C`, the “% Inhibition” value is on record as 0% and the Z score is recorded as 0.06.

For `CC(Cc1ccsc1)NC(=O)C(C)N1C(=O)CCC1=O` (stereo unspecified), the “% Inhibition” value is reported as -8% and the Z score amounted to 1.15.

In the case of `Cc1ccc(CCC(=O)N2CCc3sccc3[C@@H]2C)cc1Cl`, the “% Inhibition” value is given as -19% and the Z score stood at 3.05.

For `CCOc1ccccc1C(=O)Nc1cc(-c2ccsc2)no1`, the “% Inhibition” value is reported as -23% and the Z score was found to be 2.21.

`COc1cccc([C@@H]2CNC(=O)c3nc(-c4noc(C)n4)[nH]c3C2)c1`: the “% Inhibition” value is -10% and the Z score was 1.81.

For the compound `COc1cccc(-c2nc3ccc(F)cc3[nH]2)c1OCCn1ccnc1`, the “% Inhibition” value is recorded as -11% and the Z score came to 1.17.

Turning to `Cn1cnc(C(=O)N2C3CCC2CC(F)C3)c1` (stereo unspecified), the “% Inhibition” value was 8% and the Z score is reported as -1.47.

For the compound `COc1ccc(C(=O)N2C[C@]3(C)C[C@H]2CC(C)(C)C3)cc1OC1CCN(C(C)C)CC1`, the “% Inhibition” value came out at 17% and the Z score is recorded as -2.25.

In the case of `O=C(NC1=NN(c2ccccc2)C(=O)[C@@]1(O)S(=O)(=O)O)c1ccccc1`, the “% Inhibition” value is -1% and the Z score was found to be 0.14.

With `CC(C)C1CN(C(=O)NC2CCOC(c3ccnn3C)C2)C1C(C)C` (stereo unspecified), the “% Inhibition” value is reported as 3% and the Z score is given as -0.61.

Take `O=C(CN1C(=O)CNC1=O)N(CCOc1ccccc1)C[C@H]1CCCO1`: the “% Inhibition” value is -2% and the Z score turned out to be 0.26.

Regarding `O=C(O)c1cccc(N2CCCc3occc3C2)n1`, the “% Inhibition” value was 12% and the Z score is recorded as -1.57.

As to `CCc1ncnc(N2CC(NC3COC3)C2)c1F`, the “% Inhibition” value is -4% and the Z score turned out to be 0.63.

As to `CS(=O)(=O)c1ccccc1N1CCC[C@H]1c1ccsc1`, the “% Inhibition” value is -6% and the Z score is reported as 0.54.

Regarding `Cc1nc2ccc(-c3ccc(C(=O)N[C@H]4CS(=O)(=O)C[C@@H]4O)cc3)cn2n1`, the “% Inhibition” value is recorded as -27% and the Z score came to 4.69.

With `NC(=O)c1ccsc1NC(=O)Cn1ccnc1`, the “% Inhibition” value is recorded as -9% and the Z score came to 1.43.

Regarding `COc1cccc(F)c1C(=O)N(C)CC[C@H]1CCCCO1`, the “% Inhibition” value is -21% and the Z score is 2.39.

Consider `Clc1cnc(NCCc2noc(C3CC3)n2)nc1`, for which the “% Inhibition” value is -10% and the Z score stood at 1.31.

Consider `CCOc1ccccc1NC(=O)CC(=O)N(CC)CCN1CCCCCC1`, for which the “% Inhibition” value is -2% and the Z score came to 0.49.

For `COCCn1nnnc1[C@]1(N(C)C)CCN(C(=O)c2cc(C3CC3)[nH]n2)C1`, the “% Inhibition” value is given as -12% and the Z score worked out at 1.54.
